Source: PubChem BioAssay (NCATS)
Inconclusive means that the source gave no clear call. Such entries were picked first, then a sample of the others. For some of these results: A potency beside an inconclusive call is a rough fit, not a confirmed value. Active and inactive are the calls of the source. Calls follow the shape of the dose curve; as a rule, active = well fitted curve in the direction sought with a large enough effect; inconclusive = small, poorly fitted or top-dose-only effect, or another doubt; inactive = no such curve, though single readings can be large; an effect the other way counts as inactive or inconclusive. Where a SMILES comes first, the peptide text is derived from it. The star is where a group is joined. Cbz = O=C(OCc1ccccc1)*; CH2Cl = ClC*

Experiments:
[1] = biological target: Phospholipid hydroperoxide glutathione peroxidase GPX4 (Homo sapiens) (UniProt P36969); experiment: Primary qHTS Assay for Inhibitors of Recombinant Selenoprotein Glutathione Peroxidase 4 (GPX4) (AID 1845192); also: nearly all actives have a fitted effect of over 65% in size
Method in brief: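 NADPH consumption followed by fluorescence at 340/450 nm, t=0 and after 15 min at room temperature. Reaction started with cumene hydroperoxide (0.5 mM final) after 30 min compound–GPX4 preincubation; final 200 nM GPX4, 100 nM GR, 1 mM GSH, 0.5 mM NADPH.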

[2] = NS1 protein of Zika virus - qHTS assay to identify small molecule inhibitors in human HEK 293 cells (AID 1347053); also: nearly all actives have a fitted effect of over 55% in size
Method in brief: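 In this cell-based screen, HEK 293 cultures received compound for one hour before Zika MR766 at MOI = 0.5. NS1 was quantified 24 hours later by TR-FRET, normalized to virus-free wells and infected wells.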

[3] = qHTS of pediatric cancer cell lines to identify multiple opportunities for drug repurposing: Primary screen for TC32 cells (AID 1347089); also: nearly all actives have a fitted effect of over 60% in size
Method in brief: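 qHTS, TC32, 48 h drug treatment, CellTiter-Glo luminescence as a proxy for metabolically active cells; primary top concentration 46 µM (MIPE 11-pt, NPC 8-pt); confirmatory 11-pt.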

[4] = qHTS of pediatric cancer cell lines to identify multiple opportunities for drug repurposing: Primary screen for NB-EBc1 cells (AID 1347095)
Method in brief: (§1)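 Plated cells (500-1,000 per well, growth media) were allowed to settle for 5 hours, treated with compound dilutions for 48 hours, then lysed with CellTiter-Glo for 15 min at room temperature before luminescence reading.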

[5] = qHTS of pediatric cancer cell lines to identify multiple opportunities for drug repurposing: Primary screen for U-2 OS cells (AID 1347096); also: nearly all actives have a fitted effect of over 50% in size
Method in brief: (§2)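 Cells (500-1,000/well) rested 5 h, then received compounds for 48 h; metabolically active cells were measured by CellTiter-Glo luminescence. Final concentrations spanned up to 46 µM (MIPE, 11-point) or 0.59 nM-46 µM (NPC, 8-point) in primary screens, 11-point in follow-ups.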

[6] = qHTS of pediatric cancer cell lines to identify multiple opportunities for drug repurposing: Primary screen for Rh30 cells (AID 1347107); also: nearly all actives have a fitted effect of over 75% in size
Method in brief: as §2

[7] = Quantitative High-Throughput drug screen in 47 multiple myeloma cell lines against the NCATS MIPE library collection: KMS27_JCRB cell viability assay (AID 1918970); details: KMS27 myeloma cells, CellTiter-Glo ATP viability, 48 h; viability (% of DMSO): at 45.8 µM (top of the series); also: nearly all actives have a fitted effect of over 30% in size
Method in brief: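 ATP-based viability (CellTiter-Glo luminescence) is measured in cells treated 48 h with approved and investigational drugs at 37 °C. Controls are DMSO-only wells for full viability and media-only wells for none.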

[8] = Quantitative High-Throughput drug screen in 47 multiple myeloma cell lines against the NCATS MIPE library collection: KMS20_JCRB cell viability assay (AID 1918973); details: CellTiter-Glo ATP, 48 h; viability (% of DMSO): at 45.8 µM (top of the series); also: nearly all actives have a fitted effect of over 45% in size
Method in brief: (§3)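 qHTS of the MIPE 4.0 collection: 500 myeloma cells/well, 48 h drug exposure at 37C in 5% CO2, then CellTiter-Glo for 5 min at room temperature before luminescence reading.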

[9] = Quantitative High-Throughput drug screen in 47 multiple myeloma cell lines against the NCATS MIPE library collection: MOLP8_DSMZ cell viability assay (AID 1918977); also: nearly all actives have a fitted effect of over 45% in size
Method in brief: (§4)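 ATP-based luminescence (CellTiter-Glo, 5 min RT incubation) quantified surviving cells following two days' treatment with MIPE 4.0 agents at 37 °C, 5% CO2.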

[10] = Quantitative High-Throughput drug screen in 47 multiple myeloma cell lines against the NCATS MIPE library collection: OCIMY1_PLB cell viability assay (AID 1918979); also: nearly all actives have a fitted effect of over 35% in size
Method in brief: as §4

MCC-26 = experiment: qHTS assay to identify novel small-molecules to repurpose for Merkel cell carcinoma treatment (AID 1296009); details: MCC and control cell lines, CellTiter-Glo viability, 72 h; activity change, negative = cytotoxicity: at 46 µM (top of the series); also: nearly all actives have a fitted effect of over 60% in size
Method in brief: (§5)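 Cell viability measured by CellTiter-Glo following 72 hr compound treatment at 37 degree celsius, with NPC and MIPE libraries tested in 8- and 11-point concentration series.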

MKL-1 = experiment: as above; details: MCC and control cell lines, CellTiter-Glo viability, 72 h; activity change, negative = cytotoxicity: at 46 µM (top of the series)
Method in brief: as §5

[11] = qHTS of pediatric cancer cell lines to identify multiple opportunities for drug repurposing: Primary screen for MG 63 (6-TG R) cells (AID 1347105); details: MG 63 (6-TG R) viability, CellTiter-Glo, 48 h; activity change, negative = cytotoxic: at 46 µM (top of the series); also: nearly all actives have a fitted effect of over 50% in size
Method in brief: as §1

[12] = Quantitative High-Throughput drug screen in 47 multiple myeloma cell lines against the NCATS MIPE library collection: EJM_DSMZ cell viability assay (AID 1918926; also: nearly all actives have a fitted effect of over 30% in size)
Method in brief: as §3

[13] = Quantitative High-Throughput drug screen in 47 multiple myeloma cell lines against the NCATS MIPE library collection: ARD_JJKsccE7 cell viability assay (AID 1918929); details: ARD myeloma cell line viability, CellTiter-Glo, 48 h; viability: at 45.8 µM (top of the series)
Method in brief: as §3

[14] = Quantitative High-Throughput drug screen in 47 multiple myeloma cell lines against the NCATS MIPE library collection: KHM11_PLB cell viability assay (AID 1918962); details: KHM11 myeloma cell viability, CellTiter-Glo ATP luminescence, 48 h; series mostly up to 45.8 µM; also: nearly all actives have a fitted effect of over 35% in size
Method in brief: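 Approved and investigational drugs from MIPE 4.0 were added by pin tool to 500 cells per well. After 48 hours at 37C, ATP-based CellTiter-Glo luminescence indicated remaining viability.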

[15] = Quantitative High-Throughput drug screen in 47 multiple myeloma cell lines against the NCATS MIPE library collection: OCIMY5_PLB cell viability assay (AID 1918988); also: nearly all actives have a fitted effect of over 65% in size
Method in brief: as §4

[16] = Quantitative High-Throughput drug screen in 47 multiple myeloma cell lines against the NCATS MIPE library collection: UTMC2_PLB cell viability assay (AID 1919868); details: CellTiter-Glo ATP luminescence, 48 h; series mostly up to 45.8 µM; also: nearly all actives have a fitted effect of over 55% in size
Method in brief: as §4

[17] = Quantitative High-Throughput drug screen in 47 multiple myeloma cell lines against the NCATS MIPE library collection: KMS12PE_JCRB cell viability assay (AID 1918972); also: nearly all actives have a fitted effect of over 30% in size
Method in brief: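 Inhibition of cell viability is measured here. Each line was plated at 500 cells per well, treated with MIPE 4.0 drugs, kept 48 hours at 37C, then assayed for ATP content by CellTiter-Glo luminescence.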

[18] = qHTS of pediatric cancer cell lines to identify multiple opportunities for drug repurposing: Primary screen for SK-N-SH cells (AID 1347098); also: nearly all actives have a fitted effect of over 65% in size
Method in brief: as §2

Measured: Potency
Potency is read from the fitted curve at half-maximal effect; tags tell the direction and shape of the fitted curve.

Sequence of UniProt P36969 (P36969 whole entry, looked up): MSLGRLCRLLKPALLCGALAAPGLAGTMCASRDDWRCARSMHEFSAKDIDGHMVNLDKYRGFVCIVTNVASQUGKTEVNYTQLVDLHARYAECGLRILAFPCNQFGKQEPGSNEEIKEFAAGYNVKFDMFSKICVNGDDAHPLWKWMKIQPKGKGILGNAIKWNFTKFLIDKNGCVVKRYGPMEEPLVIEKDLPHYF

CCCCNc1ncc(-c2ccc(CN3CCOCC3)cn2)c(NC2CCC(O)CC2)n1 (configuration not stated)
inconclusive: [1] 4.42 µM [inhibitor, partial curve, poor fit]

COc1cc(CCc2cc(NC(=O)c3ccc(N4C[C@@H](C)N[C@@H](C)C4)cc3)n[nH]2)cc(OC)c1
inconclusive: [2] 37.2 µM [inhibitor, single point] | [3] 16.5 µM [cytotoxic, partial curve] | [10] 37.2 µM [cytotoxic, single point] | MCC-26 = 18.7 µM [inhibitor, partial curve] | MKL-1 = 37.2 µM [inhibitor, partial curve, poor fit]
active: [4] 14.8 µM | [5] 23.5 µM | [6] 18.7 µM | [7] 18.7 µM | [8] 4.69 µM | [9] 18.7 µM

COc1cc(C)c(Sc2cnc(NC(=O)c3ccc(CNC(C)C(C)C)cc3)s2)cc1C(=O)N1CCN(C(C)=O)CC1 (configuration not stated)
active: [4] 18.7 µM | [11] 11.8 µM | [6] 8.33 µM | [12] 16.6 µM | [14] 18.7 µM | [15] 5.26 µM
inconclusive: [2] 37.2 µM [inhibitor, single point] | [13] 0.0105 µM [cytotoxic, full curve, poor fit] | [8] 10.5 µM [cytotoxic, partial curve, poor fit] | [9] 5.26 µM [cytotoxic, full curve] | [10] 16.6 µM [cytotoxic, partial curve] | MCC-26 = 16.6 µM [inhibitor, partial curve] | MKL-1 = 29.6 µM [inhibitor, single point]
inactive: [5] | [7]

C[C@@]12C(=O)OC(=O)[C@@]1(C)C1CCC2O1
inconclusive: [6] 5.9 µM [cytotoxic, full curve]
active: [2] 3.72 µM | [3] 13.1 µM | [11] 1.87 µM | [13] 1.66 µM | [10] 5.26 µM | [16] 0.0469 µM | MCC-26 = 6.62 µM

COc1cccc2c1C(=O)c1c(O)c3c(c(O)c1C2=O)C[C@@](O)(C(C)=O)C[C@H]3O[C@H]1C[C@H](N)[C@H](O)[C@H](C)O1
active: [3] 0.234 µM | [12] 0.105 µM | [13] 0.235 µM | [14] 0.235 µM | [17] 0.0662 µM | [9] 0.132 µM | [10] 0.332 µM | [15] 0.0469 µM | [16] 0.0118 µM
inconclusive: [2] 0.418 µM [inhibitor, full curve, poor fit] | [4] 0.0296 µM [cytotoxic, full curve, poor fit]

Cc1cc(Nc2cc(CN3CCOCC3)c3nc(C)c(Cc4ccc(Cl)cc4F)n3n2)n[nH]1
inconclusive: [2] 37.2 µM [inhibitor, single point] | [3] 9.3 µM [cytotoxic, full curve] | [13] 0.662 µM [cytotoxic, full curve, poor fit] | [14] 23.5 µM [cytotoxic, partial curve, poor fit] | [7] 0.0296 µM [cytotoxic, full curve, poor fit] | [17] 1.05 µM [cytotoxic, full curve, poor fit] | [10] 20.9 µM [cytotoxic, partial curve, poor fit] | MKL-1 = 14.8 µM [inhibitor, partial curve]
active: [18] 6.81 µM | [11] 14.8 µM | [12] 16.6 µM

C=C1C(=O)O[C@@H]2C/C(C)=C\C(=O)/C=C(\C)[C@@H](OC(=O)/C(C)=C\C)[C@H](O)[C@@H]12
inconclusive: [1] 22.2 µM [inhibitor, single point]

Cc1ccccc1C(=O)Nc1ccc(C(=O)N2CCCC(N(C)C)c3ccccc32)cc1 (configuration not stated)
inconclusive: [18] 1.54 µM [cytotoxic, partial curve, poor fit] | [11] 26.6 µM [cytotoxic, partial curve, poor fit]
active: [4] 2.99 µM

CC(C)C[C@H](NC(=O)CNC(=O)OCc1ccccc1)C(=O)N[C@@H](Cc1ccccc1)C(=O)CCl (Cbz-Gly-Leu-Phe-CH2Cl)
inactive: [1]

CC(=O)Oc1ccc(C2(c3ccc(OC(C)=O)cc3)Oc3ccccc3NC2=O)cc1
active: [11] 4.22 µM
inconclusive: [3] 29.7 µM [cytotoxic, single point] | [4] 29.9 µM [cytotoxic, single point] | [5] 21.1 µM [cytotoxic, single point] | MCC-26 = 26.6 µM [inhibitor, partial curve]
